# Data reported in the supplement of paper PMC10126150.
# Sequences with one replicate were seen in a single cluster, so their values are uncertain.
# Tested on: ATP
# Test: switch fluorescence ratio, 500 uM ATP over buffer (Cy3 cluster intensity, sum of 5 cycles each) (fold (ratio)); higher = stronger signal-on switching upon ATP binding; sequences stand for … in TCGTCGGCAGCGTCAGATGTGTATAAGAGACAGTTTTTTTTTTTTTTTTTTTTTTTTT…TC
# Settings: aptamer strand: ATP DNA aptamer (quencher-CACCTGGGGGAGTATTGCGGAGGAAGG + anchor), 100 nM annealed; ATP concentration: 500 uM; one replicate
# Summary of the method: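 Exposure to 500 uM ATP lasted 15 min at 22 °C before imaging, and a selection-buffer image was taken beforehand, for Cy3-labelled switching-strand clusters on a modified Illumina MiSeq flow-cell annealed to 100 nM quencher-labelled ATP aptamer. Five buffer/ATP cycles were run with NaOH stripping and re-annealing between them. The fluorescence ratio per cluster is summed target-cycle over summed buffer-cycle Cy3 intensity, averaged per switch-domain sequence. Clusters outside 100-1000 RFU were excluded.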
row,Sequence,switch fluorescence ratio
1,AGGTGAGCTA,1.01
2,TTTTATTCCC,0.967
3,GGTATTAACG,0.999
4,GGTTCGCAC,1.15
5,CAAGATTCA,0.963
6,ACAGGCTCCA,0.966
7,AACTTCGGTA,1
8,TTCAGTTGTA,1.01
9,CGTAAAGCTA,1.05
10,CTTCGAAGCA,1.37
11,AGGATAGGGA,1.04
12,CCTCATTCGT,1.05
13,TATGTCCGGG,1.04
14,TCGATGAGTG,1.03
15,AGGACTGTCG,0.945
16,GAATTGAAAT,0.986
17,CATTACTGCA,1.1
18,CTTCTGTTAT,1.01
19,CCTGTCTATC,1.07
20,GGGCATACTC,1.05
21,AAGAGTCTGA,1.01
22,TTATAAGGCT,1
23,GACCCTTTGA,0.965

row,Sequence,switch fluorescence ratio
1,TTTCAGCATT,1.05
2,TTACGGTGTG,0.989
3,GCCACATCAC,1.27
4,GTGCTTTAAA,0.961
5,TTTATTTAGT,1.01
6,GGCGTGACTC,1.08
7,TTAGTACTC,1
8,AAAGACCAG,1.01
9,TCCAACTTAA,1
10,TGTTAGATA,0.951
11,GATGGGTAGT,0.983
12,ACAAATACAC,1.07
13,ATCCCCCGTC,0.994
14,GGGTAGGAGC,1.03
15,TTCATCAAAG,1.06
16,TGCCCGAACT,0.998
17,CCACTTGGGT,1.03
18,GTCCTTGAAC,1
19,TTGAATACGT,1.02
20,ATCTACTGTT,1.03
21,AGGGTTCGCG,1.03
22,TTTTAGCACT,1.08
23,TAAACTTATG,1

row,Sequence,switch fluorescence ratio
1,GCATCGCCTT,0.999
2,GCTTTGAAGT,0.945
3,TGGACGCCTT,0.989
4,CCTAACTGT,1.03
5,CTGTGACTCT,1.03
6,TACGGGACAT,1.22
7,AGGTTTCC,0.99
8,TTAGCGGTG,0.971
9,GTTATTAGTA,0.966
10,GCGTACGGTC,1.18
11,GCGCCAACCT,1.51
12,GTGCAACTAT,0.962
13,AAGGTCACGG,1.02
14,GATGACCAAG,0.96
15,ATATGTCTGC,0.978
16,TTTGGCAGCG,0.97
17,GGTCGGCAGC,0.982
18,GGAGCTGCCA,1.06
19,AGCACTGTGG,1.04
20,GTACTAGATC,0.974
21,ATTGGGTTAC,1.01
22,ATTGCGGGGT,0.956
23,GATTATCTTC,1.01

row,Sequence,switch fluorescence ratio
1,TATCTGGGAC,1
2,TTAGCTCAGG,1.07
3,TATTATACGG,1.04
4,ATTCAAGGTA,1.01
5,GGTGTGTAGG,1.01
6,GATCCCTTT,0.985
7,ATCGCCCCTT,1.08
8,GACAAATTGG,0.995
9,TGCCCCCAGA,1.84
10,GTTAGTAAAC,1.04
11,ATGGAGTCGC,1.02
12,TATTCGGGTC,1.05
13,TGCAGCCACC,1.15
14,TCGGTAGCTT,0.992
15,CCCCAAAGG,1.63
16,GGTGGGCATA,1
17,AGTAATCTTC,1.07
18,TTGTGTTAC,1.07
19,TAAAGTGCTC,0.965
20,GGCAGTTATC,1.05
21,AAAGCAGCGT,0.985
22,TTCCGCTCGA,2.01
23,GCCGGACGA,1

row,Sequence,switch fluorescence ratio
1,CCTAGGGCGA,1.04
2,CCACGGATAT,1.13
3,ACGGGTCGCG,0.969
4,GAGCTGGTAG,0.981
5,TCGGCCTACC,1.24
6,CATTTGTGCA,1.01
7,GCAATGATCG,1.3
8,AACGCACGAA,1.55
9,GTGTTAGCG,1.01
10,GCGAAACGGC,1.16
11,ACAAGTTTGT,0.964
12,GTTTCATGCC,0.944
13,AGAAATGCGT,1.04
14,CTGCCGTCG,0.988
15,TAGTTGGTGC,1.08
16,AGTCGGACTC,1.03
17,TAAATTATCG,1.03
18,TGTGTCTTAT,1.01
19,TTTTCTGCAC,1.32
20,CACGCCGACC,1.42
21,ACAAGGGTAC,1.05
22,AGGGCTCAGG,0.975
23,CCCTTAGTAG,0.978

row,Sequence,switch fluorescence ratio
1,ATCGAGGATG,0.976
2,ACTGACTATT,1.12
3,CTTTTATGGA,0.946
4,CCACCCCAGC,1.24
5,CCGGTTTACC,1.04
6,TTGTCCGGCC,1.06
7,TGTGTCCTTC,1.06
8,TTACCCGGCG,1.08
9,GTGCTGCTG,1.1
10,ACTCCCAGTC,3.69
11,AAGTCATGCA,0.995
12,CGGTTGCCAA,1.06
13,CATTTAGTCG,0.977
14,AGAATGCACT,0.974
15,TTTTTCGGAG,1.05
16,ACTTTCGCTC,1.13
17,AGTAGGTACC,1
18,TGAGCTAGAG,1.03
19,CAAGCGTGTA,1.04
20,CTTGGAAGG,1.02
21,AAGGGGAAGC,0.961
22,CGTCGAGTTT,0.982
23,AGCCATTTTT,0.947

row,Sequence,switch fluorescence ratio
1,AACCGTTTCG,1.09
2,CCTTCATGCT,1.08
3,TGGGCGACAT,1.01
4,ACAGCATGGC,1.04
5,AGTGCTGAAA,0.97
6,TTCTTTAGGT,1.02
7,TTAAGTTCTG,0.987
8,ACAAATATAC,1.35
9,ACCCTGGGCC,1
10,TACATTTTAG,1
11,GACTCAAATA,1.05
12,ATGCGTTCTC,1
13,CGACGGGCTT,1.05
14,ATGGATCGTT,0.975
15,CCTGCTCGGT,1.05
16,CAGATGGTT,0.973
17,GAAAGAGGG,0.976
18,TCGTTAGGAC,0.983
19,CTGAAACGGA,1.07
